# From PubChem BioAssay AID2147 (National Center for Advancing Translational Sciences (NCATS), 2009)
# Hit rate of the full screen: of about 230,000 compounds, about 3,600 (1.6%) were called active. Inconclusive results, whose numbers are uncertain, are shown with a selection of clear calls. Calls follow the shape of the dose curve; as a rule, active = well fitted inhibition curve with a large enough effect (not every such curve was filed as active); inconclusive = small, poorly fitted or top-dose-only effect, or another doubt; inactive = no such curve, though single readings can be large or run the other way. A potency beside an inconclusive call is a rough fit, not a confirmed value.
# Molecular target: Lysine-specific demethylase 4E (Homo sapiens) (UniProt B2RXH2)
# Test: qHTS Assay for Inhibitors of Human Jumonji Domain Containing 2E (JMJD2E)
# Details: JMJD2E catalytic domain, FDH-coupled NADH fluorescence (FDH is formaldehyde dehydrogenase); series mostly up to 57.1 µM; activity change, negative = inhibition: at the top concentration
# Also: nearly all actives have a fitted effect of over 50% in size.
# 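For activity change, negative = inhibition in this document: 0% = wells with enzyme and -100% = buffer wells without enzyme.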
# Potency is read from the fitted curve at half-maximal effect; tags tell the direction and shape of the fitted curve.
# Chain of UniProt B2RXH2 (B2RXH2 whole entry, looked up, the tested form may be a part): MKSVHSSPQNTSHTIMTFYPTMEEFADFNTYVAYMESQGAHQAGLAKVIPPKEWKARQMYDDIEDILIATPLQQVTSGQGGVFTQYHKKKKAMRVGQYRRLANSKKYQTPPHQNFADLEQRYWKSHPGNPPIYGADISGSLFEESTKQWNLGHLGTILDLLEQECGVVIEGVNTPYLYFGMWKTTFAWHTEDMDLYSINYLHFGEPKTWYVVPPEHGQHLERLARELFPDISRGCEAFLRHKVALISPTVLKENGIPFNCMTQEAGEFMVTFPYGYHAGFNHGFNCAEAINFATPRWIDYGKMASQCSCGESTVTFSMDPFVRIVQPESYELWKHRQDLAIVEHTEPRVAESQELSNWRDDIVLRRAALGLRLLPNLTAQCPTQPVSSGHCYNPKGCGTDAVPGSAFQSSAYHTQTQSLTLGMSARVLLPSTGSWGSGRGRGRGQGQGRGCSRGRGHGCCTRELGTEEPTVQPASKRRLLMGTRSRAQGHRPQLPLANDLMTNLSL
Compound,Potency,"activity change, negative = inhibition"
COc1ccc(C=Nc2ccc3[nH]ncc3c2)c(O)c1,"inconclusive: 25.1 µM [inhibitor, partial curve]",–
COc1ccc2nnc(-c3ccc(C(F)(F)F)cc3)n2n1,"inconclusive: 35.5 µM [inhibitor, single point]",–
Cn1nc(C(=O)NCc2ccco2)c2ccccc2c1=O,–,inactive: 5.54%
O=C(NCc1csc(-c2cccs2)n1)C1CCCCC1,"inconclusive: 31.6 µM [inhibitor, single point]",–
CCOC(=O)c1cnc(-n2nc(C)cc2C)nc1NNc1nc(-c2ccccc2)cc(-c2ccccc2)n1,–,inactive: -9.27%
c1ccc(CN2CCN(c3nc4ccccc4c4ccccc34)CC2)cc1,"inconclusive: 31.6 µM [inhibitor, partial curve]",–
COc1cc(/C=C(/Sc2nnc(-c3ccc(F)cc3)o2)C(=O)O)ccc1OC(F)F,"inconclusive: 39.8 µM [inhibitor, single point]",–
Cn1c(=NC(=O)c2ccc3c(c2)OCCO3)sc2cc(S(C)(=O)=O)ccc21,"inconclusive: 35.5 µM [inhibitor, single point]",–
CCOP(=O)(OCC)c1nc(/C=C/c2ccccc2)oc1NCc1ccc(OC)cc1,"inconclusive: 31.6 µM [inhibitor, partial curve]",–
O=C(O)CCc1nn2c3ccccc3n(Cc3ccccc3)c2nc1=O,"inconclusive: 31.6 µM [inhibitor, partial curve]",–
CN(C)c1ccc(CN2CCC(C(N)=O)CC2)cc1,active: 28.2 µM,–
CC(NC(=O)c1ccc(C(C)(C)C)cc1)C(=O)O (stereo not given),–,inactive: -12.5%
O=C(Nc1ccc(Cl)cc1)Nc1nnc(-c2ccncc2)s1,"inconclusive: 15.8 µM [inhibitor, partial curve]",–
COC(=O)c1cc(NC(=O)c2ccc([N+](=O)[O-])cc2)c(=O)oc1C,"inconclusive: 39.8 µM [inhibitor, single point]",–
COc1ccc(-c2[nH]c(-c3cc(OC)c4c(c3)OCO4)nc2-c2ccccc2)cc1,"inconclusive: 12.6 µM [inhibitor, partial curve]",–
COc1cc2c(C(=O)NCc3ccc4c(c3)OCO4)cn(CC(C)C)c(=O)c2cc1OC,–,inactive: -20%
CC(C)CC1c2[nH]c3ccccc3c2CCN1C(=O)CCC(=O)N(C)C (stereo not given),"inconclusive: 11.2 µM [inhibitor, partial curve]",–
CCN(CC)C1=CC2=CC(=C(C#N)C#N)CCC2CC1 (stereo not given),–,inactive: -1.92%
CC1CCCC(C)N1NC(=S)Nc1ccc(OC(F)F)cc1 (stereo not given),–,inactive: -0.907%
CCC(=O)Nc1nc2nc(-c3ccccc3)cc(=O)n2[nH]1,–,inactive: -28%
